Data: PMC4336329 (PLoS ONE, 2015)
Among all 310,000 compounds or so, about 14,000 (4.5%) showed an effect of 50% or more. The effect is printed as a negative number. The list shows a part of the results.

The compounds below were run against human ether-à-go-go-related gene (hERG) potassium channel (human, UniProt Q12809) (assay: primary screen, population patch clamp on CHO cells stably expressing hERG).
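Further: peak tail current of the secondary pulse compared with the same well before compound.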

Sequence of human ether-à-go-go-related gene (hERG) potassium channel (Q12809 whole entry, looked up): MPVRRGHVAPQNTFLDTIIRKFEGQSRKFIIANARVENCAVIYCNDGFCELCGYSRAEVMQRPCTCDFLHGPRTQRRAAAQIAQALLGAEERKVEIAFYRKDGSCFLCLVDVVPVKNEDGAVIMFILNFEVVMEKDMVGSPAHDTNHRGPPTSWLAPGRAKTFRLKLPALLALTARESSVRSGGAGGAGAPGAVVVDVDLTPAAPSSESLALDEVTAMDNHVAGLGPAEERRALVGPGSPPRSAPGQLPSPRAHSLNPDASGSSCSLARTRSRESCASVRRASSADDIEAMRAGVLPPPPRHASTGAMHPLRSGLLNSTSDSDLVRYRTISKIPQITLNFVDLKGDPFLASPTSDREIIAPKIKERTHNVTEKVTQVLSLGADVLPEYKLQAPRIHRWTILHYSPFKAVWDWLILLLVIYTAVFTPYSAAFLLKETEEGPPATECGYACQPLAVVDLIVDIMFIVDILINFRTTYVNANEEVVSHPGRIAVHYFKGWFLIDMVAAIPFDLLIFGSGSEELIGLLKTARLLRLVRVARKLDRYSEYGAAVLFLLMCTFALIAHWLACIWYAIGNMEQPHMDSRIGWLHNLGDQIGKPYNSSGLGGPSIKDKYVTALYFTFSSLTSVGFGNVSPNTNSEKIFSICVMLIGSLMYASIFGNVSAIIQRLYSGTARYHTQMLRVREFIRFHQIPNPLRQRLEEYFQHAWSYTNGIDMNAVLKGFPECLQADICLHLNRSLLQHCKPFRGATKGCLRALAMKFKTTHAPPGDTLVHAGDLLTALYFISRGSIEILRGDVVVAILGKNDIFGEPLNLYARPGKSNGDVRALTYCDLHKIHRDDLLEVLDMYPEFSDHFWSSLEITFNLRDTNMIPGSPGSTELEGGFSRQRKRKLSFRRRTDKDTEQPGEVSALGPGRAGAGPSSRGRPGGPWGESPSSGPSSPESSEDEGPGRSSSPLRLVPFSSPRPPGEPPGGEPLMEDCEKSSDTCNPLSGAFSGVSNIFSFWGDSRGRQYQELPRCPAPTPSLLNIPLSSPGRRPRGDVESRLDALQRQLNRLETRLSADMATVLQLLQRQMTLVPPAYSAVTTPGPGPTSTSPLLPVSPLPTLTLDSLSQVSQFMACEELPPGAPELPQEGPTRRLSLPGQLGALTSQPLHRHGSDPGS

Row | SMILES | hERG current change (%, negative = inhibition) at 10uM
1 | COc1ccc(S(=O)(=O)N2CCCN(CC(=O)Nc3ccc4c(c3)OCO4)CC2)cc1 | -61.5%
2 | Cc1occc1-c1nnc(SCC(=O)NCc2ccco2)n1CC(C)C | 5.18%
3 | CCc1ccc(-c2cc(C)no2)cc1S(=O)(=O)N1CCN(c2ccc(C(C)=O)cc2)CC1 | -4.32%
4 | Cc1ccc(NC(=S)NC(=O)/C=C/c2ccco2)c(O)c1 | 2.91%
5 | COc1ccc2oc(=O)c(NC(=O)C3CCCCC3)cc2c1 | -2.23%
6 | Cc1nn(-c2ccccc2)c(C)c1C(=O)Nc1nnc(-c2ccco2)o1 | -5.59%
7 | CC(=O)c1c(Cl)nc2ccc(Br)cc2c1-c1ccccc1 | 21.7%
8 | Brc1ccc(C2Nc3cccc4cccc(c34)N2)o1 | 10%
9 | C/C(=C\[C@@H](NP(=O)(c1ccccc1)c1ccccc1)c1ccccc1)CO[Si](c1ccccc1)(c1ccccc1)C(C)(C)C | 5.58%
10 | Cl.c1csc(CNCc2ccncc2)c1 | 21.8%
11 | COc1ccc(Cn2c(C3CC3)nc3ccc(NC(=O)c4cccnc4)cc3c2=O)cc1 | -42.6%
12 | O=C(O)CCC(=O)NN1C(=O)c2ccccc2NC1c1ccco1 (centres unmarked) | 11%
13 | COc1ccc(-n2c(=O)c3ccccc3n(Cc3ccc(F)cc3)c2=O)cc1OC | 7.94%
14 | CC(Sc1cccc[n+]1[O-])C(=O)Nc1cccc(S(=O)(=O)N2CCOCC2)c1 (centres unmarked) | 13.6%
15 | Cn1c(=O)c2c(ncn2Cc2ccc(Cl)c(Cl)c2)n(C)c1=O | -0.364%
16 | COC(=O)CC1Oc2ccccc2N(Cc2ccc(C)cc2)C1=O (centres unmarked) | -13.5%
17 | Cc1ccc(-c2nc3cc(C)ccc3o2)cc1 | 13.2%
18 | COC(=O)N[C@@H]1C[C@H]2[C@@H]3CC[C@H]4C[C@@H](OC)CC[C@]4(C)[C@H]3CC[C@]12C | 5.72%
19 | COc1ccc(C(C(=O)NC(C)(C)C)N(C(=O)Cn2nnc3ccccc32)c2cccc(C(C)=O)c2)cc1O (centres unmarked) | -7.64%
20 | CC(=O)c1c(N)[nH]c(-c2ccccc2)nc1=S | 15.7%
21 | COc1ccc(C(=O)Nc2ccc(-c3ccc(NC(=O)c4ccc(OC)cc4)c(OC)c3)cc2OC)cc1 | 8.52%
22 | O=C(Nc1nc(-c2ccccc2)cs1)c1cccs1 | -19.1%
23 | CCOC(=O)c1sc(NC(=O)c2cc(-c3cccc(O)c3)on2)c(C(=O)OCC)c1C | 17.8%
24 | CC(=O)Nc1ccc(OCCC[n+]2cccc(C(=O)[O-])c2)cc1 | 12.5%
25 | COC(=O)c1c(C)c[nH]c1C | 13.4%
26 | COc1ccc(C(=O)CSc2nnc(-c3cc(C)cc(C)c3)o2)cc1 | 15.7%
27 | CCOc1ccc(NS(=O)(=O)c2cc(C(=O)NCCCN3CCOCC3)ccc2C)cc1 | -1.83%

Row | SMILES | hERG current change (%, negative = inhibition) at 10uM
28 | CC(C)NCCCCOc1cccc(Br)c1.O=C(O)C(=O)O | -25.8%
29 | O=C(C1CCCN(S(=O)(=O)c2cccc3nsnc23)C1)N1CCN(c2ccccn2)CC1 (centres unmarked) | -50.2%
30 | CCCOc1ccc(-c2c(C(=O)N/N=C/c3ccccc3OCC)nnn2-c2nonc2N)cc1 | 22.7%
31 | Cc1ccc2c(c1)N(N=O)CCC2 | 1.2%
32 | Cc1ccc([N+](=O)[O-])cc1-c1ccc(/C=N/NC(=O)c2cc3c(ccc4ccccc43)o2)o1 | 28.7%
33 | COc1cc(OC)cc(-c2c(-c3ccc(F)cc3)c3cc(-c4cnc(OC)nc4)ccc3n2C)c1 | 6.62%
34 | COc1ccc(/C=C2\SC(=S)N(CCCCCC(=O)Nc3cc(C)on3)C2=O)cc1OC | 30.5%
35 | O=C(NC(=S)Nc1ccc(-c2nc3ncccc3o2)cc1)c1ccccc1F | 14.5%
36 | O=C1c2cccc3cccc(c23)C(=O)N1CC1CCCO1 (centres unmarked) | 24.5%
37 | N#Cc1ccc(CSc2ncnc3c2cnn3Cc2ccccc2)cc1 | 12.3%
38 | CN(C)CCN(C(=O)CN1C(=O)c2ccccc2C1=O)c1nc2cc3c(cc2s1)OCCO3.Cl | -53.8%
39 | COC(=O)c1sc(NC(=O)COc2ccccc2C)nc1C | -6.1%
40 | CS(=O)(=O)N1CCN(c2ccccc2NC(=O)c2ccc([N+](=O)[O-])o2)CC1 | -25.2%
41 | Cn1cc(CN(CCO)Cc2cccs2)c(-c2ccccc2F)n1 | 2.43%
42 | Cc1ccccc1-c1nc(CN2CCC(C(=O)N3CCN(c4ccccn4)CC3)CC2)c(C)o1 | -62%
43 | Cn1c(N)c(C(=O)COC(=O)COc2ccccc2C#N)c(=O)n(C)c1=O | -23.2%
44 | CC1=C(C(=O)Nc2ccccc2)C(c2ccc(Cl)cc2)n2c(s/c(=C/c3cccc(OCC(=O)O)c3)c2=O)=N1 (centres unmarked) | 4.87%
45 | CC(C)CN1C(=O)c2ccc(C(=O)Nc3c[nH]c(=O)[nH]c3=O)cc2C1=O | 25.7%
46 | COC(=O)c1cc2cc(OC)ccc2n1C | 0.821%
47 | Cc1ccc(-n2c(SCC(=O)NNC(=S)Nc3ccccc3)nc3ccccc3c2=O)cc1 | 9.45%
48 | COc1ccc(OC)c(-c2oc3ccccc3c(=O)c2O)c1 | -2.07%
49 | COc1ccccc1N1CCN(C(c2cccs2)C(C)NC(=O)c2cccs2)CC1 (centres unmarked) | -8.54%
50 | CN(CC(=O)NCc1ccncc1)S(=O)(=O)c1ccc(F)cc1 | -0.77%
51 | CCOc1ccc(NC(=O)Nc2ccc3c(c2)N(C)C(=O)CS3)cc1 | -2.52%
52 | CCOc1ccc(NCc2nnc(SCc3ccccc3Cl)n2-c2ccccc2)cc1 | -18.2%
53 | CCOC(=O)C1=C(C)N(CCO)C(=O)NC1c1cccc(O)c1 (centres unmarked) | 18.8%
